# Test results: publication PMC4336329 (PLoS ONE, 2015)
# Among all 310,000 compounds or so, about 14,000 (4.5%) showed an effect of 50% or more. The effect is printed as a negative number. This is one part of the list.
# Molecular target: human ether-à-go-go-related gene (hERG) potassium channel (human, UniProt Q12809)
# Experiment: primary screen, population patch clamp on CHO cells stably expressing hERG
# 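Also: peak tail current of the secondary pulse compared with the same well before compound.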
# human ether-à-go-go-related gene (hERG) potassium channel, sequence (Q12809 whole entry, looked up): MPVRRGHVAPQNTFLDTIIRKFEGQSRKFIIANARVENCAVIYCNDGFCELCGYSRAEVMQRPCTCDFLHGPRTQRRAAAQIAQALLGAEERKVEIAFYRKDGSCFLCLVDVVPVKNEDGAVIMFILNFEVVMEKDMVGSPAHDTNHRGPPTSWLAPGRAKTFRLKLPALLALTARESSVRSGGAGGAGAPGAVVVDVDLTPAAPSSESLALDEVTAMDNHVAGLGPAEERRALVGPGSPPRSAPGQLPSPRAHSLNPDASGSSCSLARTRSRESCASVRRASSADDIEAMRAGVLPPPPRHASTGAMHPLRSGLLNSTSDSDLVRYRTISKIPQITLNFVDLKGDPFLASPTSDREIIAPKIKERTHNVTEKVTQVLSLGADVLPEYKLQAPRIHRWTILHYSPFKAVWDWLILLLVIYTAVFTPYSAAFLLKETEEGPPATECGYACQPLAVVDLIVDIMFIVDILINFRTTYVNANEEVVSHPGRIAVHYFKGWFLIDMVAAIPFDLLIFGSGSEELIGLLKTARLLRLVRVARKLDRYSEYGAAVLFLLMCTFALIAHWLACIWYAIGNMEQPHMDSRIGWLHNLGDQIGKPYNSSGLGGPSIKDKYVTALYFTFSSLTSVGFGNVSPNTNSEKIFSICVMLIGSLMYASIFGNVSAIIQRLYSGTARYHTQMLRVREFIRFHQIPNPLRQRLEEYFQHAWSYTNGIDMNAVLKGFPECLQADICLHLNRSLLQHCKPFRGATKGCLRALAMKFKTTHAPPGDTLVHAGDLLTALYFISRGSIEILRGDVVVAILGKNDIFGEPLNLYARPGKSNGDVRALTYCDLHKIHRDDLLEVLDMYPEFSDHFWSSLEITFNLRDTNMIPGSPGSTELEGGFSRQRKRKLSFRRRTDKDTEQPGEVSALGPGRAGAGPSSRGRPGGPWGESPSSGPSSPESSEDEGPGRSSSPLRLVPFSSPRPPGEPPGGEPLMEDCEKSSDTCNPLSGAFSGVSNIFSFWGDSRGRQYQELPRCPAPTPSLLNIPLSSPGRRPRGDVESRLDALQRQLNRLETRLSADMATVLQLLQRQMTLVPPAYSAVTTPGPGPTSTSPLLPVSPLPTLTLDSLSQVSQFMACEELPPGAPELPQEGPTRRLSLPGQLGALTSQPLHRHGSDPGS
row,Structure (SMILES),"hERG current change (%, negative = inhibition) at 10uM [%]"
1,O=C(Nc1ccccc1C(=O)N1CCCCCC1)c1ccccc1Cl,11.6
2,O=C(Nc1ccccn1)c1onc2c1CCCC2,-0.419
3,CNC(=O)c1ccccc1S(=O)c1ccccc1C#N (stereo not drawn),2.49
4,CCCCc1nnc(NC(=O)CSCc2cc(=O)n3ccsc3n2)s1,10
5,CCCc1cc(=O)oc2cc(OC(C)C(=O)NCc3ccccn3)c(Cl)cc12 (stereo not drawn),-15
6,CN(c1ccc(OCC(=O)OCC(=O)NCc2ccco2)cc1)S(=O)(=O)c1ccc2ccccc2c1,2.22
7,CCOC(=O)C(=NCC1CCCO1)NNc1ccccc1Cl (stereo not drawn),-9.39
8,Cc1ccc(C2C(C#N)=C3N=C(N)c4ccccc4N3C3=C2C(=O)CCC3)cc1 (stereo not drawn),-6.54
9,O=C(COC(=O)Cn1c(C(F)(F)F)nc2ccccc21)Nc1ccc2c(c1)OCCO2,-2.54
10,Cc1nc2sccn2c(=O)c1S(=O)(=O)Nc1ccc(N2CCOCC2)c(Cl)c1,18.6
11,CCCCCCc1cc2cc(C(=O)NCc3ccccc3)c(=N)oc2cc1O,5.76
12,CCN(CC)P(=O)(C(NC(=O)OC)C(F)(F)C(F)(F)C(F)(F)C(F)F)N(CC)CC (stereo not drawn),5.03
13,CC(C)c1nnc(NC(=O)c2cc3cc(Br)ccc3oc2=O)s1,-2.45
14,O=C(Nc1cccc(Cl)c1)c1cc([N+](=O)[O-])ccc1N1CCN(CCO)CC1,-53
15,COc1ccc(NC(=O)CN(C)C(=O)c2csc3c2CCCC3)cc1,-4.53
16,Cc1ccccc1CN1CCN(C(=O)c2cc(-c3ccncc3)nc3ccccc23)CC1,-76.7
17,COc1ccccc1CNC(=O)COC(=O)CC1CC2CCC1C2 (stereo not drawn),-14.1
18,COc1cc(/C=C2/C(=N)N3C(=NC2=O)SN=C3S(=O)(=O)C(C)C)ccc1OS(=O)(=O)c1ccccc1,24.4
19,Cc1ccc(C(=O)CNc2ccc(Cl)cc2)cc1,10.7

row,Structure (SMILES),"hERG current change (%, negative = inhibition) at 10uM [%]"
1,COc1ccc(CC(=O)OCC(=O)Nc2ccc(Br)cc2)cc1,2.68
2,O=S(=O)(c1cccc(F)c1)N1CCN(c2ncnc3scc(-c4ccc(F)cc4)c23)CC1,0.83
3,CCCC(c1nnnn1CC1CCCO1)N1CCN(c2cc(Cl)ccc2C)CC1.Cl (stereo not drawn),-8.06
4,CC(CNc1ccccc1O)C(=O)O (stereo not drawn),7.33
5,CSc1ncccc1C(=O)NCCc1ccccc1F,18.7
6,CCCS(=O)(=O)N1CCCC(C(=O)NCCCOC(C)C)C1 (stereo not drawn),5.98
7,C=CC(=O)NC(C)(C)Cc1ccccc1,3.63
8,O=C(Nn1c(=S)[nH]c2ccccc2c1=O)c1ccncc1,11.8
9,COc1ccc(C(=O)CC(=O)c2ccc(F)cc2)cc1,24.1
10,O=C(Nc1ccc(Cl)cc1)OCc1cn(-c2ccc(Cl)cc2)nn1,4.47
11,CCOC(=O)c1c(CN2CCCCC2C)oc2ccc(OC)cc12.Cl (stereo not drawn),-58.9
12,Cc1ccc(NC(=O)C2CCN(S(=O)(=O)c3cccs3)CC2)cc1C,-31.1
13,FC(F)(F)c1ccccc1NC1=NCCCS1,2.83
14,COc1ccc(S(=O)(=O)N(CC(C)C)CC(C)C)c2cccnc12,-31.3
15,CC1CN(C(=O)CCNC(=O)c2ccccc2Cl)CC(C)O1 (stereo not drawn),19.5
16,Nc1c(Cl)ncnc1N/N=C/c1ccncc1,10.2
17,O=C(Cc1c(Cl)cccc1Cl)Nc1ccc(S(=O)(=O)Nc2ncccn2)cc1,20.7
18,COc1ccc(N(Cc2cc3cc(OC)ccc3[nH]c2=O)C(=O)c2cccnc2)cc1,-5.1
19,Cc1ccc(C)c(N2CCN(C(=O)CCCCn3c(=O)[nH]c4ccccc4c3=O)CC2)c1,-25.2

row,Structure (SMILES),"hERG current change (%, negative = inhibition) at 10uM [%]"
1,CCn1nc(Cc2cccc3ccccc23)c(C#N)c1N,-15
2,CC(=O)c1cc(C#N)c(N2CCCC2)nc1C,15.1
3,CN1CCC(=O)N([C@H](COc2ccccc2)Cc2ccccc2)CC1,-28.5
4,CC(=O)Nc1ccc(NC(=O)CSc2nnc(NC(=O)C3CC(=O)N(c4ccccc4)C3)s2)cc1 (stereo not drawn),8.38
5,COc1cccc(NC(C)C(=O)N2CC(C)OC(C)C2)c1 (stereo not drawn),-1.96
6,CC1CC(C)CN(C(=O)c2ccc(S(=O)(=O)N3CC(C)CC(C)C3)cc2)C1 (stereo not drawn),-36.9
7,COc1ccccc1S(=O)(=O)CC(O)COc1ccc(F)cc1Cl (stereo not drawn),-3.29
8,CCN(CC(=O)Nc1ccc(NC(C)=O)cc1)C(=O)C1CC(=O)N(CCc2ccc(OC)c(OC)c2)C1 (stereo not drawn),-10.7
9,CNC(=S)NCCCc1ccccc1,7.97
10,CS(=O)(=O)Nc1ccc(C(=O)N2CCc3ccccc3C2)cc1,-23
11,CCOC(=O)c1cccc(-c2c(-c3ccccc3)ncc3cc(OC)c(OC)cc23)c1,4.03
12,Cn1nc(C(=O)OCC(=O)c2ccc[nH]2)c2ccccc2c1=O,3.25
13,CC1(C)Cc2nc3oc4c(N(CCO)Cc5ccccc5)ncnc4c3cc2CO1,-65.6
14,O=C1COc2ccccc2N1Cc1ccc(Cl)cc1,-20.4
15,Cc1ccc(N)c(C(=O)CCCCC(=O)O)c1,7.01
16,Cc1ccc(CN(Cc2ccccn2)C(=O)Nc2ccc(C)c(C)c2)cc1,-3.1
17,Cc1nc2ccc(NC(=O)c3cnc(Cl)c(Cl)c3)cc2s1,2.5
18,CCN(CC)CCN1C(=O)C(=O)/C(=C(/O)c2ccc(S(=O)(=O)N3CCOCC3)cc2)C1c1ccc(C(C)(C)C)cc1 (stereo not drawn),26.1
19,COc1ccc(OC)c(CN2C(=O)c3ccccc3C2C(=O)NCC2CCCO2)c1 (stereo not drawn),17.2
